Experimental data reported in ChEMBL document CHEMBL5308541, “MAIP: An Open-Source Tool to Enrich High-Throughput Screening Output and Identify Novel, Druglike Molecules with Antimalarial Activity” (ACS Med Chem Lett, 2023).
Among all 150,000 compounds or so, about 540 (0.36%) showed an effect of 50% or more. The list shows a part of the results.

system: Plasmodium falciparum; assay: Primary screen in NF54 nanoGlo assay, in single point, at 2uM, 72h; a lower Z score goes with more inhibition; format: functional, Erythrocyte; conditions: timepoint 72 hour

Structure (SMILES)	% Inhibition [%]	Z score
C[C@H]1CN(c2nccnc2C#N)CCN1C(=O)c1ccc2[nH]ccc2c1	-11	1.72
CNc1nc(NC2COCCC2Oc2ccccn2)ncc1F (stereo unspecified)	-8	1.48
COCCN1CCC(N2CCN(c3cccc(C(F)(F)F)n3)CC2)CC1	0	0.01
O=C(NCCNc1cccnc1)[C@H]1CCCN(C2CCOCC2)C1	-13	1.98
CN1CCC(N2CC3CCCC3(c3noc(-c4ccccc4)n3)C2)CC1 (stereo unspecified)	-1	0.26
NC(=O)C1(N2CCCCC2)CCN(C[C@]2(O)CCCN3CCCC[C@@H]32)CC1	-2	0.26
COCc1ccc(CN(CCN2CCCCC2)C[C@H]2CCCN(C3CCCC3)C2)o1	2	-0.3
Nc1nccc([C@H]2CCCN(Cc3ccc(Br)c4cccnc34)C2)n1	-12	2.04
N#Cc1cccnc1N1CCC(Nc2nccc(N3CCC[C@H](O)C3)n2)CC1	-12	2.1
COCCN(C)C[C@H]1CCCN1c1nc(-c2ccncc2)nc2ccccc12	2	-0.44
CCOc1ccnc(NC[C@H]2CCN(C3CCCC3)C2)n1	-9	1.98
CC(C)COC(=O)N1CCCN(C[C@H](C)N2CCCN(C(=O)OCC(C)C)CC2)CC1	14	-3.09
Cc1cc2nc(-c3ccccc3)cc(N[C@@H](C)c3n[nH]c(=O)[nH]3)n2n1	2	-0.37
Cc1ccc2nc(C(=O)O)cc(Nc3cccc(F)c3)c2c1	4	-0.66
COc1ccc2nc(-c3ccccc3)c(CN3CCN(C)CC3)c(O)c2c1	-7	1.29
OCCN1CCC(CNc2ccc3cc(Br)c(F)cc3n2)CC1	3	-0.52
Cc1nccn1-c1ccccc1CN[C@@H](C)CN1CCN(C)CC1	-3	0.43
CCN1CCN(c2ccc(CN[C@@H](C)c3cc4ccncc4s3)cn2)CC1	-7	1.43
CN(C)CCN1CCN(c2cccc(N)c2)CC1	-8	1.37
CC(O)(CNc1ncc(Cl)c(NCC(C)(O)C2CC2)n1)C1CC1 (stereo unspecified)	10	-2.06
CN1CCC(N2CCC(c3nc(-c4c[nH]c5ccccc45)n[nH]3)CC2)CC1	-3	0.73
Fc1ccc(-c2cc(N3CCCn4cncc4C3)n3nccc3n2)cc1	-4	0.87
CC(C)N(C)S(=O)(=O)c1ccc(Cl)c(C(=O)N2CCC(N3CCNC3=O)CC2)c1	-2	0.48
